# In the supplement of paper PMC11417369:
# Some of the results follow.
# Test system: PfSIP2 AP2 domain 1 (GST-tagged)
# Assay: gcPBM binding intensity (ln(normalized median fluorescence intensity)); higher = stronger DNA binding
# Outline: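 An Agilent 4 × 180k array of primer-extended double-stranded 36-bp intergenic genomic probes, with negative controls, was incubated for 1 h with GST-tagged P. falciparum DNA-binding domains expressed in E. coli. Alexa488 anti-GST antibody detected bound protein, scanned at 488 nm. Binding intensity is the highest Masliner-normalised natural-log median intensity across replicate spots of either probe orientation.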
row,Sequence,gcPBM binding intensity (ln)
1,TTTTTTTCTTGTTTTAAATAATATACTGGAAAAAAA [CACACA_negctrl_site585],6.9
2,AGAGAGAAAGTTATAACATGCAACAATTTTTAGAAC [TGCATGCA_site96],6.92
3,TTTCCATATTGTGGATGTACGTTTTGAGGTTTTTAC [XGTACX_site3362],7.1
4,ATATATATTTCTTAAAGTACATAATAATAAAAATAT [XGTACX_site8981],7.12
5,ATAATTATTAAGAGAACATGCAAAATATATATGTTT [TGCATGCA_site503],6.95
6,AAAGCACCCAGGCACACACACAAAGGAAAAGAAAAA [CACACA_site232],8.53
7,ATATATATATATATTTGTACGTATTATGTATTTTTT [XGTACX_site3530],9.57
8,AATACAATAAAATAGTGTACATATATATTATGTATA [XGTACX_site8258],6.93
9,TTAAAATATGATATATGTACATAATTACTAAAAACA [XGTACX_site276],7.14
10,GAATAAATTAAAAACGCATGTATCATTACTACATAA [TGCATGCA_site111],6.59
11,TTTATATTATACTATACATGCATATAATAAAGGTCA [TGCATGCA_site934],6.91
12,AATAGAATAATCCTTACACACACACGCGCACGAATA [CACACA_site6365],7.3
13,ATTTTATTTTTTTGTGATAATTGATTTATATATTGT [TGCATGCA_negctrl_site563],6.94
14,ATTATTTCTTTGTGATGTACAAATAAACATGTTGGT [XGTACX_site5636],7.14
15,TATATATTACATTGTTGTACATATATATTATATATA [XGTACX_site60],7.15
16,ATTCATTTTATTTTTTCACACACACCGATATATATA [CACACA_site9097],7.49
17,ACCCCCATATTCTTTTTACACACTTGAATAAAAAAT [CACACA_site8319],7.63
18,ATTTTTCAATTATGTAGTACATTGATATTTTCATTT [XGTACX_site5369],7.02
19,TTTATATTTATATTGGGTACATAAAAAGCTTGAAAT [XGTACX_site8248],7.19
20,ATTTTTATTCTTATTACACACCTAAATATAAAATAT [CACACA_site2064],7.33
21,TGTGTTCATATATGCACACGCATATATATTATTGTT [CACACA_site3822],7.02
22,TGTGTCCATTGAACAGTGCAATAAAAACTTTTACAT,7.96
23,ATAAATATGGAGCACACACACATAAACATACATATA [CACACA_site421],7.33
24,AAAAAAAAAAAACACACACACACACCGATACATACA [CACACA_site8849],7.09
25,TTTTTTTTTTTGTGGTGTACCTTTATTTCCTTTTAG [XGTACX_site6934],6.96
